Source: the supplement of paper PMC3334620
Whole data set: some 33,000 sequences, median “E-score (-0.5 to 0.5)” near -0.036, cut for the highest 2% near 0.37. The list shows a part of the results.

Target: T1, Yer064c (UniProt P40041)
T1 sequence: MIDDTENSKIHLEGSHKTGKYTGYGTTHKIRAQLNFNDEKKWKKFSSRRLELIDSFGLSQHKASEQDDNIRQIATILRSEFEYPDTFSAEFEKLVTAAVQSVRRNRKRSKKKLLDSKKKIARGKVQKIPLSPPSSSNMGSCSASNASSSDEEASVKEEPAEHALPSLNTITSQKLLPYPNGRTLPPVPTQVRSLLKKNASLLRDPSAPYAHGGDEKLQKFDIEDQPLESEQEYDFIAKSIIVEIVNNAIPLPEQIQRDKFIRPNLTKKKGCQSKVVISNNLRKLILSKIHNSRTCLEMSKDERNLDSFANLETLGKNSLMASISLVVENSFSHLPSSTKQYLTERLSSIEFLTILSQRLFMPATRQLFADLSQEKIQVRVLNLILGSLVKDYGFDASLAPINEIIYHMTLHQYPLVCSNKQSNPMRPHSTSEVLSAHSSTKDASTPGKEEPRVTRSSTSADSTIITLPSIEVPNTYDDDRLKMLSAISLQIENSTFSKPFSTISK
Assay: PBM E-score (8-mer binding enrichment) (E-score (-0.5 to 0.5)); higher = stronger / more preferred TF binding; most listed sequences are background and not binding sites
Conditions: protein concentration: 200 nM; construct: GST-full length
Outline: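 For each ungapped eight-base word taken together with its reverse complement, the Universal PBM Analysis Suite assigned an E-score. Binding data came from GST-tagged yeast transcription factors, applied at about 100-200 nM, on universal all-10-mer Agilent arrays made double-stranded by primer extension. Fluorescent anti-GST marked bound protein, and scans were normalised with masliner.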

In order of falling “PBM E-score” value:
1. AGTGAGTC  0.474
2. AGACTAAC  0.413
3. CGGACTCA  0.411
4. ATGGACTC  0.317
5. GATATGAC  0.303
6. ACTAACTC  0.297
7. AGTCTACA  0.272
8. ACGGTGAC  0.254
9. ACCAATCA  0.243
10. ATACTCAA  0.239
11. ATTTAGAG  0.219
12. ACTGATGA  0.217
13. GGACTCCC  0.214
14. CCTCAATC  0.206
15. ATATGCAG  0.196
16. AGCAGTGA  0.195
17. GTGGGTGA  0.194
18. ACCTCAGT  0.173
19. TCACGCAA  0.166
20. GTTGATCA  0.162
21. AAATCAGA  0.158
22. CATACGAC  0.158
23. ATTGTAAA  0.158
24. TCTAGAAA  0.156
25. TAACAAGA  0.149
26. ATACTTAG  0.141
27. AGCGTGAG  0.14
28. ACAATGAG  0.138
29. CTGATCAA  0.135
30. TACCATGA  0.131
31. GGAGTACA  0.129
32. TAATACGA  0.129
33. AAATAAAT  0.129
34. ATTCAACG  0.128
35. ATTTCTGA  0.124
36. ACAATAGT  0.122
37. CTGCCGAC  0.115
38. ATTAGTGG  0.11
39. CTAGATGA  0.109
40. ATTCGCTG  0.107
41. ATGCAGTG  0.0989
42. ACATAAAA  0.0977
43. TAGAACCA  0.0965
44. ACGACCTA  0.0951
45. GTAATAAC  0.0905
46. TATAGATA  0.0868
47. AATTAAGT  0.0867
48. GATAGTAC  0.0862
49. CCGTCATA  0.0861
50. AACCGCTT  0.0842
51. ATCGGGAG  0.0774
52. GTTTCTGA  0.0765
53. CAATTAGC  0.0733
54. ACGCTAAC  0.0718
55. AGCGCTAA  0.0694
56. CATCGGAG  0.0629
57. CTGATAAG  0.0612
58. AATGTGGT  0.0567
59. CAAAAGCG  0.0551
60. CATGCCGA  0.049
61. CTGGGTCA  0.0445
62. ATCTTTCG  0.0434
63. ACAGTGTG  0.0397
64. GTCTTTCA  0.0314
65. CACGGTGG  0.0291
66. AATCTAGG  0.0277
67. AACCAGAT  0.0191
68. ACAGACAT  0.0189
69. CGGACCAA  0.0184
70. CCGTTTAG  0.0178
71. AATTCGCT  0.0169
72. AGACCTAA  0.0162
73. AAGAATAA  0.0152
74. ACCGTAAC  0.0129
75. AGGGTCGA  0.0119
76. CATGTGCG  0.0118
77. AATTCAGA  0.0103
78. CAATGCTG  0.00624
79. GCTGGTCA  0.00078
80. TGACCTCA  -0.00196
81. ACCTATAC  -0.00407
82. AGCGTGTA  -0.0072
83. CTCCAACA  -0.0127
84. ACTTGTCT  -0.0145
85. ATTCTCCA  -0.0149
86. AGTTCAAC  -0.0156
87. ACGTCGAT  -0.0197
88. CTAAACGC  -0.0203
89. GAATAGAC  -0.0209
90. GTAGCAGA  -0.0296
91. GAGCTGTA  -0.0312
92. GGAATTCA  -0.0346
93. GCAAGATA  -0.0351
94. CGACAAAC  -0.0358
95. CCCTGTTA  -0.0361
96. CAACTGTG  -0.0385
97. CTTGGCAA  -0.0407
98. ACACTTTA  -0.0437
99. GGGAGTTA  -0.0443
100. CGTCGTAC  -0.0504
101. ACATAATA  -0.0511
102. AACTGTCT  -0.0512
103. AGACGGGA  -0.0599
104. AGTGGTGG  -0.0709
105. GAGGTTTA  -0.0754
106. ACGTTTGC  -0.0766
107. CCTGTGGA  -0.0777
108. AGGGGCTA  -0.0794
109. CGTCACTC  -0.0803
110. CTCTATAC  -0.0811
111. CCTCAAAG  -0.0817
112. ATAGAATG  -0.0817
113. AATAACCC  -0.084
114. CCCCGGAA  -0.0848
115. CGTGCCAA  -0.09
116. ACAAAACT  -0.0935
117. CCCTCATA  -0.0944
118. CGAGAAAC  -0.0973
119. AAGCGTTA  -0.101
120. AAGCGGAC  -0.104
121. AGTTTTCG  -0.105
122. GGGGCAAC  -0.107
123. ATGGTGGA  -0.108
124. ACCGTTTA  -0.11
125. CCAGCAGA  -0.111
126. ATCGGACC  -0.118
127. CCCTAAAC  -0.12
128. AAATACAG  -0.123
129. ACCTTCCA  -0.123
130. GGCACGAA  -0.125
131. CCAAAAGG  -0.136
132. GAAACCGA  -0.137
133. GCGAAGTA  -0.14
134. CTTCACAA  -0.143
135. AAGTTAAG  -0.145
136. GTGCTGGA  -0.152
137. CAATCCCC  -0.152
138. CAACCTGG  -0.153
139. AACAGTGG  -0.153
140. CGCGAGCA  -0.16
141. AGGGCCCG  -0.161
142. ATCGACAC  -0.163
143. ACCGGGGC  -0.164
144. ACTGGAGC  -0.168
145. CACGGGGG  -0.17
146. CAGGCACA  -0.18
147. CATTAGGC  -0.181
148. CTGCAAGC  -0.191
149. TACCACCA  -0.191
150. ACATCGGC  -0.193
151. CCCCCACA  -0.204
152. GCATGGGC  -0.209
153. CAATTTGC  -0.213
154. CCCCCAAC  -0.22
155. GCGACCGC  -0.221
156. GGCCTGCA  -0.221
157. GACCGCGC  -0.229
158. CGGGTCTC  -0.229
159. GGCGGCAC  -0.241
160. CCTACCCC  -0.249
161. AGAGGTGC  -0.25
162. AGGGCTTA  -0.259
163. CAGATCTG  -0.263
164. GACGCCAC  -0.268
165. ACCCCGCG  -0.302
166. CCACGCTC  -0.308
167. ATGCCGGC  -0.309
168. AGGGGGCG  -0.31
169. AAGCCCCC  -0.335
170. AAGGAAGC  -0.368
171. CCACGCCC  -0.379
172. GCCCTTCC  -0.402
